Test results reported in patent US7592316B2, “Peptides as NS3-serine protease inhibitors of hepatitis C virus” (Schering Corporation, priority 2000, dated 2009).

Biological target: HCV NS3/NS4A protease (strain 1a) (Hepatitis C virus genotype 1a, UniProt P27958)
Test: biochemical
Conditions: Compounds prepared by Solid Phase Synthesis, Table 3; read-out: Ki* CLASS

SMILES	Ki [nM]
CCCC(NC(=O)[C@@H]1C[C@@H](OCc2ccccc2)CN1C(=O)C(NC(=O)C(CC)C(=O)O)C1CCCCC1)C(=O)C(=O)NCC(=O)NC(C(=O)O)c1ccccc1 (stereo partly shown) (X98-[ξChg][Hyp](Bn)[X2]G[ξPhg]-OH)	1 to 100
CCCC(NC(=O)[C@@H]1C[C@@H](OCc2ccccc2)CN1C(=O)C(NC(=O)c1ccc(C)cc1C)C1CCCCC1)C(=O)C(=O)NCC(=O)N[C@@H](C(N)=O)c1ccccc1 (stereo partly shown) (X101-[ξChg][Hyp](Bn)[X2]G[dPhg]-NH2)	101 to 1000
CCCC(NC(=O)[C@@H]1C[C@@H](OCc2ccccc2)CN1C(=O)C(NC(=O)C1CCCCC1C(=O)O)C1CCCCC1)C(=O)C(=O)NCC(=O)NC(C(=O)O)c1ccccc1 (stereo partly shown) (X103-[ξChg][Hyp](Bn)[X2]G[ξPhg]-OH)	1 to 100
CCCCC(NC(=O)CNC(=O)C(=O)C(CCC)NC(=O)[C@@H]1C[C@@H](OCOCCOC)CN1C(=O)C(NC(=O)C1CCCC[C@@H]1C(=O)O)C1CCCCC1)C(N)=O (stereo partly shown) (X105-[ξChg][Hyp](MEM)[X2]G[ξNle]-NH2)	101 to 1000
CCCCC(NC(=O)CNC(=O)C(=O)C(CCC)NC(=O)[C@@H]1C[C@@H](OCC(=O)OC(C)(C)C)CN1C(=O)C(NC(=O)Cc1ccc2ccccc2c1)C1CCCCC1)C(N)=O (stereo partly shown) ({Acetyl(2-naphthyl)}-[ξChg][Hyp](CH2CO2tBu)[X2]G[ξNle]-NH2)	> 1000
CCCCC(NC(=O)CNC(=O)C(=O)C(CCC)NC(=O)[C@@H]1C[C@@H](OCC(=O)O)CN1C(=O)C(NC(=O)Cc1ccc2ccccc2c1)C1CCCCC1)C(N)=O (stereo partly shown) ({Acetyl(2-naphthyl)}-[ξChg][Hyp](Carboxymethyl)[X2]G[ξNle]-NH2)	> 1000
CCCCC(NC(=O)CNC(=O)C(=O)C(CCC)NC(=O)[C@@H]1C[C@@H](OC(C)(C)C)CN1C(=O)C(NC(=O)Cc1ccc2ccccc2c1)C1CCCCC1)C(N)=O (stereo partly shown) ({Acetyl(2-naphthyl)}-[ξChg][Hyp](tBu)[X2]G[ξNle]-NH2)	> 1000
CCCCC(NC(=O)[C@@H]1C[C@@H](OC(C)(C)C)CN1C(=O)[C@@H](NS(=O)(=O)c1ccc(F)cc1)C(C)C)C(=O)C(=O)NCC(=O)N[C@H](C(N)=O)c1ccccc1 (stereo partly shown) ({Benzenesulfonyl(4-F)}-V[Hyp](tBu)[X4]G[Phg]-NH2)	> 1000
CCCCC(NC(=O)[C@@H]1C[C@@H](OC(C)(C)C)CN1C(=O)[C@@H](NS(=O)(=O)c1ccc(OC)cc1)C(C)C)C(=O)C(=O)NCC(=O)N[C@H](C(N)=O)c1ccccc1 (stereo partly shown) ({Benzenesulfonyl(4-OMe)}-V[Hyp](tBu)[X4]G[Phg]-NH2)	> 1000
CCCC(NC(=O)[C@@H]1C[C@@H](OC(C)(C)C)CN1C(=O)[C@@H](NC(=O)c1c(F)c(F)c(F)c(F)c1F)C1CCCCC1)C(=O)C(=O)NCC(=O)NC(C(N)=O)c1cccc(Cl)c1 (stereo partly shown) ({Benzoyl(2,3,4,5,6-F5)}-[Chg][Hyp](tBu)[X2]G[ξPhg(3-Cl)]-NH2)	> 1000
CC(C)CC(NC(=O)[C@@H]1C[C@@H](OC(C)(C)C)CN1C(=O)[C@@H](NC(=O)c1c(F)c(F)c(F)c(F)c1F)C1CCCCC1)C(=O)C(=O)NCC(=O)N[C@H](C(N)=O)c1ccccc1 (stereo partly shown) ({Benzoyl(2,3,4,5,6-F5)}-[Chg][Hyp](tBu)[ξLeu(ψCOCO)]G[Phg]-NH2)	> 1000
CCCC(NC(=O)[C@@H]1C[C@@H](OCc2ccccc2)CN1C(=O)[C@H](CCCC(=O)OC(C)(C)C)NC(=O)c1c(F)cccc1F)C(=O)C(=O)NCC(=O)N[C@H](C(N)=O)c1ccccc1 (stereo partly shown) ({Benzoyl(2,6-F2)}-[Aad](OtBu)[Hyp](Bn)[X2]G[Phg]-NH2)	> 1000
CCCC(NC(=O)[C@@H]1C[C@@H](OCc2ccccc2)CN1C(=O)[C@H](CCCC(=O)O)NC(=O)c1c(F)cccc1F)C(=O)C(=O)NCC(=O)N[C@H](C(N)=O)c1ccccc1 (stereo partly shown) ({Benzoyl(2,6-F2)}-[Aad][Hyp](Bn)[X2]G[Phg]-NH2)	101 to 1000
CCCC(NC(=O)[C@@H]1C[C@@H](OC(C)(C)C)CN1C(=O)[C@@H](NC(=O)c1c(F)cccc1F)C1CCCCC1)C(=O)C(=O)NCC(=O)N[C@H](CC(=O)OC(C)(C)C)C(N)=O (stereo partly shown) ({Benzoyl(2,6-F2)}-[Chg][Hyp](tBu)[X2]G[dD](OtBu)-NH2)	> 1000
CCCC(NC(=O)[C@@H]1C[C@@H](OC(C)(C)C)CN1C(=O)[C@@H](NC(=O)c1c(F)cccc1F)C1CCCCC1)C(=O)C(=O)NCC(=O)NC(C(N)=O)c1cccc(OC)c1OC (stereo partly shown) ({Benzoyl(2,6-F2)}-[Chg][Hyp](tBu)[X2]G[ξPhg(2,3-(OMe)2)]-NH2)	101 to 1000

Same assay, conditions: Ki* Range, Table 5; HCV NS3/NS4A protease, spectrophotometric assay, 30° C., pH 6.5

SMILES	Ki [nM]
CCCC(NC(=O)[C@@H]1[C@@H]2[C@H](CN1C(=O)[C@@H](NC(=O)Oc1ccccc1)C(C)(C)C)C2(C)C)C(=O)C(=O)NCC(=O)N[C@H](C(=O)N(C)C)c1ccccc1 (stereo partly drawn) (X72-[Tle][Pro(3R,4S-CMe2)][X2]G[Phg]-NMe2)	1 to 100
C#Cc1ccc(OC(=O)N[C@H](C(=O)N2C[C@@H]3[C@H]([C@H]2C(=O)NC(CCCC)C(=O)C(=O)NCC(=O)N[C@H](C(=O)N(C)C)c2ccccc2)C3(C)C)C(C)(C)C)cc1 (stereo partly drawn) (X76-[Tle][Pro(3S,4R-CMe2)][X4]G[Phg]-NMe2)	101 to 1000

Same assay, conditions: Table 4; HCV NS3/NS4A protease, spectrophotometric assay, 30° C., pH 6.5; read-out: Ki* Range

SMILES	Ki
CCC[C@H](NC(=O)[C@@H]1[C@H]2C[C@H]2CN1C(=O)[C@@H](NC(=O)OCC(C)C)C1CCCCC1)C(=O)C(=O)NCC(=O)NC(C(=O)N(C)C)c1ccccc1 (stereo in doubt)	1 to 100 nM
CCCC(NC(=O)C1C[C@@H](NC(=O)Nc2ccc(Cl)cc2)CN1C(=O)[C@@H](NC(=O)OCC(C)C)C1CCCCC1)C(=O)C(=O)NCC(=O)N[C@H](C(N)=O)c1ccccc1 (stereo in doubt)	101 to 1000 nM and > 1000 nM

Several values for one entry are separate records, joined by “and”; a condition that tells them apart may be missing. Identical values can stand only once. *1 amine or outer side, *2 acyl side, *3 side chain or, on linkers, in order; H or OH if unused. Where a SMILES comes first, the peptide text is derived from it. [ ]: non-standard residue; d: D form. The star is where a group is joined. ξ: configuration not given here. Pro(3R,4S-CMe2) = CC1(C)[C@@H]2[C@@H](C(=O)O)NC[C@@H]21; Pro(3S,4R-CMe2) = CC1(C)[C@H]2[C@@H](C(=O)O)NC[C@H]21; Benzoyl(2,3,4,5,6-F5) = O=C(c1c(F)c(F)c(F)c(F)c1F)*; Benzenesulfonyl(4-OMe) = COc1ccc(S(=O)(=O)*)cc1; Benzenesulfonyl(4-F) = O=S(=O)(c1ccc(F)cc1)*; ξLeu(ψCOCO) = CC(C)CC(N[*:1])C(=O)C(=O)[*:2]; ξPhg(2,3-(OMe)2) = COc1cccc(C(N)C(=O)O)c1OC; Acetyl(2-naphthyl) = O=C(Cc1ccc2ccccc2c1)*; Benzoyl(2,6-F2) = O=C(c1c(F)cccc1F)*; ξPhg(3-Cl) = NC(C(=O)O)c1cccc(Cl)c1; X4 = CCCCC(N[*:1])C(=O)C(=O)[*:2]; Hyp = O=C(O)[C@@H]1C[C@@H](O)CN1; X2 = CCCC(N[*:1])C(=O)C(=O)[*:2]; X105 = O=C(O)[C@H]1CCCCC1C(=O)*; Aad = N[C@@H](CCCC(=O)O)C(=O)O; dPhg = N[C@@H](C(=O)O)c1ccccc1; CH2CO2tBu = CC(C)(C)OC(=O)C*; Chg = N[C@H](C(=O)O)C1CCCCC1; Phg = N[C@H](C(=O)O)c1ccccc1; Tle = CC(C)(C)[C@H](N)C(=O)O; X101 = Cc1ccc(C(=O)*)c(C)c1; X103 = O=C(O)C1CCCCC1C(=O)*; X76 = C#Cc1ccc(OC(=O)*)cc1; ξChg = NC(C(=O)O)C1CCCCC1; ξPhg = NC(C(=O)O)c1ccccc1; Carboxymethyl = O=C(O)C*; X98 = CCC(C(=O)O)C(=O)*; X72 = O=C(Oc1ccccc1)*; ξNle = CCCCC(N)C(=O)O; Bn = c1ccc(C*)cc1; OtBu = CC(C)(C)O*; tBu = CC(C)(C)*; MEM = COCCOC*
